Here are results for 54 compounds from paper PMC4336329 (PLoS ONE, 2015).

Hit rate of the full screen: of about 310,000 compounds, about 2,200 (0.71%) showed an effect of 50% or more. Effects have a minus sign here. This is one part of the list.

Chain of human ether-à-go-go-related gene (hERG) potassium channel (Q12809 whole entry, looked up): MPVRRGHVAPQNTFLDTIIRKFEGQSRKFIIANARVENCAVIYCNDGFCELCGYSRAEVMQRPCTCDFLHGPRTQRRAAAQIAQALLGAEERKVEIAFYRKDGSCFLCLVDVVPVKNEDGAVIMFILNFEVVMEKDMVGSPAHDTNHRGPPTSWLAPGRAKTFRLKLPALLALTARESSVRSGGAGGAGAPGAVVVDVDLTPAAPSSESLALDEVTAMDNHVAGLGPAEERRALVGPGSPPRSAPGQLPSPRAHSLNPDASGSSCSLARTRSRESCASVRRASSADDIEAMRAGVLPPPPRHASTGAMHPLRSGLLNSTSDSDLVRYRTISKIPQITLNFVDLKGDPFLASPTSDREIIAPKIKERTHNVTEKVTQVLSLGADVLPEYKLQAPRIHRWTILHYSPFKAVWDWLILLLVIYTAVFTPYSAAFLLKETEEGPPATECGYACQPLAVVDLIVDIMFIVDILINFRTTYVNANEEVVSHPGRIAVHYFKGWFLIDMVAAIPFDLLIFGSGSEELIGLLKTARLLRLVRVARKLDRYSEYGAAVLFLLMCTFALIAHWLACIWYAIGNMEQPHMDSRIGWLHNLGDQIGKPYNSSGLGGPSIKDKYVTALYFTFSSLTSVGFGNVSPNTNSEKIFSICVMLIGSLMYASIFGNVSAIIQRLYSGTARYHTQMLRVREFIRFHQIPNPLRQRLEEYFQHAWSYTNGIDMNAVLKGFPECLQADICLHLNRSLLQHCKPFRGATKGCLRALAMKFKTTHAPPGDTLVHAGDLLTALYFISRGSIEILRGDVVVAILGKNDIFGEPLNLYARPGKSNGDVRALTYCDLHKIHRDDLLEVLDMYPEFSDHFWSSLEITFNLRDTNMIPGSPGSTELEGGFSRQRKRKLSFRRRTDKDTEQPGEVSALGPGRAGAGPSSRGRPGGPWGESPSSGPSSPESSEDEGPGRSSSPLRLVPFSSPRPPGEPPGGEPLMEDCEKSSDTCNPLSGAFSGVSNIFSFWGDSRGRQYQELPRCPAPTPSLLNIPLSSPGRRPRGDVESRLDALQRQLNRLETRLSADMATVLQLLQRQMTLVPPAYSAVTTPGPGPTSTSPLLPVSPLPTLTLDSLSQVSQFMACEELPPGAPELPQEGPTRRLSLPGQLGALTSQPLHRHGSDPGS

The assay has as its target human ether-à-go-go-related gene (hERG) potassium channel (human, UniProt Q12809). Nature of the assay: primary screen, population patch clamp on CHO cells stably expressing hERG.
On to `Cc1ccc(S(=O)(=O)N2CC3(C)CN(S(=O)(=O)c4ccc(C)cc4)CC(C)(C2)C3O)cc1` (stereo not drawn), for which the “hERG current change (%, negative = inhibition) at 1uM” value was determined as 7.49%. On to `CCN(CC)C(=O)c1ccc(S(=O)(=O)Cc2ccc(C)cc2)c([N+](=O)[O-])c1`, for which the “hERG current change (%, negative = inhibition) at 1uM” value amounted to 1.6%.

For `CC(=O)Nc1cccc(NC(=O)CSc2nnc3ccc(-c4cccnc4)nn23)c1`, the “hERG current change (%, negative = inhibition) at 1uM” value was determined as 13.1%. Regarding `CCN(CC)C(=O)c1nc[nH]c1C(=O)N1CCN(C(=O)OC(C)(C)C)CC1`, the “hERG current change (%, negative = inhibition) at 1uM” value was 12.6%. As for `COC(=O)[C@@]1(Cc2ccc(F)cc2)[C@H]2c3cc(C(=O)N4CCCC4)n(CCCNc4ncc(C(F)(F)F)cc4Cl)c3C[C@H]2CN1C(=O)c1ccccc1`, the figure is 9.19%; as for `S=c1[nH]c2ccc(Cc3ccc4[nH]c(=S)[nH]c4c3)cc2[nH]1`, 13%.

Turning to `CN1/C(=C\C(=S)NC(=O)c2ccc([N+](=O)[O-])cc2)C(C)(C)c2ccccc21`, the “hERG current change (%, negative = inhibition) at 1uM” value was 14.4%. Next, `COc1ccc(Cn2nnnc2CN2CCC(c3nc4ccccc4s3)CC2)cc1`: 3.16%. Take `CCc1cc(=O)oc2cc(C)cc(OCC(=O)NCc3ccccn3)c12`: the “hERG current change (%, negative = inhibition) at 1uM” value is on record as -8.34%. For `CN(C(=O)c1cccc(C#CC(C)(C)O)c1)C1CCCN(Cc2ccccc2F)C1` (stereo not drawn), the “hERG current change (%, negative = inhibition) at 1uM” value is recorded as 10.2%. As for `Cc1nn(-c2cc(Cl)ccc2N)c(=O)c2ccccc12`, the “hERG current change (%, negative = inhibition) at 1uM” value amounted to 0.593%. In the case of `CC/C(=N/NC(=O)c1ccccc1O)c1c(C)[nH]n(-c2ccccc2)c1=O`, the “hERG current change (%, negative = inhibition) at 1uM” value is on record as 13.6%. Take `COc1ccc(NC(=O)COc2cc(C)cc(C)c2)cc1S(=O)(=O)N1CCCCC1`: the “hERG current change (%, negative = inhibition) at 1uM” value is -6.23%.

In the case of `FC(F)(F)c1cccc(CN2CCSCC2)c1`, the “hERG current change (%, negative = inhibition) at 1uM” value was 11.9%. As for `Cc1nc2c(C(=O)NCc3cccs3)cnn2c(C)c1Cc1ccc(F)cc1`, the “hERG current change (%, negative = inhibition) at 1uM” value was determined as 7.78%.

With `C=CCn1c(SCC(=O)Nc2ccc3c(c2)OCO3)nc2ccccc2c1=O`, the “hERG current change (%, negative = inhibition) at 1uM” value was determined as 7.34%. Take `CC(=O)NC(C)c1ccc(C(=O)CSc2nnc(C3CC3)n2C2CC2)cc1` (stereo not drawn): the “hERG current change (%, negative = inhibition) at 1uM” value stood at 11.6%. Regarding `Cc1cc(C(=O)N/N=C/c2c(C)nn(-c3ccccc3)c2C)c(C)o1`, the “hERG current change (%, negative = inhibition) at 1uM” value is 12.2%. Take `O=C(NC1=NCCS1)c1ccccc1F`: the “hERG current change (%, negative = inhibition) at 1uM” value came out at 2.08%. On to `CCC(Oc1ccccc1C)C(=O)Nc1ccc(S(=O)(=O)Nc2cc(C)on2)cc1` (stereo not drawn), for which the “hERG current change (%, negative = inhibition) at 1uM” value turned out to be 8.78%. As for `O=C(O)CC(Cc1ccc(Br)cc1)C(=O)Nc1ccccc1` (stereo not drawn), the figure is 4.46%; as for `CC(C)(C)OC(=O)CNC(=O)c1[nH]cnc1C(=O)Nc1ccc(CNC(=O)OC(C)(C)C)cc1`, 11.6%.

As to `CCCCCCS(=O)Cc1ccccc1` (stereo not drawn), the “hERG current change (%, negative = inhibition) at 1uM” value is -2.41%.

On to `COc1cccc(C2Nc3ccc4ccccc4c3C3=C2C(=O)CCC3)c1O` (stereo not drawn), for which the “hERG current change (%, negative = inhibition) at 1uM” value is 15.7%.

Consider `CCN(CC(=O)Nc1ccc(NC(C)=O)cc1)C(=O)CSC(c1ccccc1)c1ccccc1`, for which the “hERG current change (%, negative = inhibition) at 1uM” value stood at 5.05%. As for `Cc1ccc2c(C)nc(Nc3ncc4c(n3)CCCC4=O)nc2c1`, the figure is 2.3%; as for `CS/C(N)=N/N=C/c1cc(C)ccc1O`, 8.38%; as for `CCc1ccc(-c2csc3ncn(CC(=O)N4CCOCC4)c(=O)c23)cc1`, -3.18%. As for `C/C(=N\Nc1nc(C)cc(-c2ccccc2)n1)c1ccc(F)cc1`, the figure is 11.2%; as for `CC(=C/c1ccc(C(C)C)cc1)/C=N/NC(=O)Cn1nc(C)cc1C`, 10.2%; as for `CC1CCCCN1S(=O)(=O)c1ccc(S(=O)(=O)N2CCN(c3ccccc3)CC2)cc1` (stereo not drawn), 5.25%. For the compound `CCS(=O)(=O)N1Cc2ccccc2CC1C(=O)Nc1nnc(SCc2ccc(C#N)cc2)s1` (stereo not drawn), the “hERG current change (%, negative = inhibition) at 1uM” value is 5.91%. Regarding `Cn1ccc(C(=O)Nc2ccc3c(c2)OCCO3)n1`, the “hERG current change (%, negative = inhibition) at 1uM” value is recorded as 17.3%. In the case of `CCOC(=O)c1c(-c2ccco2)csc1NC(=O)CSc1nnc(N)s1`, the “hERG current change (%, negative = inhibition) at 1uM” value is 8.78%.

`CC(C)CCNC(=O)C1CC2Cn3c(nc4cc(Cl)c(Cl)cc43)C2N1C` (stereo not drawn): the “hERG current change (%, negative = inhibition) at 1uM” value is -26.1%. On to `CC(Sc1nnc(C(F)(F)F)n1C)C(=O)Nc1ccc(S(N)(=O)=O)cc1` (stereo not drawn), for which the “hERG current change (%, negative = inhibition) at 1uM” value turned out to be 8.05%. As for `CC(C)Cc1ccc(S(=O)(=O)NCC2CCCO2)cc1` (stereo not drawn), the figure is 10.3%; as for `CCCC(C(=O)Nc1ccc(C)c(S(=O)(=O)N2CCOCC2)c1)c1ccccc1` (stereo not drawn), -22.6%; as for `Cc1ccc2oc(=O)c3cnn(CC(=O)NC4CCN(Cc5ccccc5)CC4)c3c2c1`, 4.04%. Turning to `CCCCC(=O)N1CCCC(C)C1` (stereo not drawn), the “hERG current change (%, negative = inhibition) at 1uM” value is 7.91%.

For the compound `CCOC(=O)C1=C(O)C(=O)NC(c2ccccc2)=C(OCC)C1`, the “hERG current change (%, negative = inhibition) at 1uM” value came out at 5.01%. As for `COc1ccc(Oc2ncccc2NC(=O)c2cccc(C)c2C)cc1`, the figure is 13.8%. Regarding `Cc1ccc2c(c1)N(CC(=O)NC1CCCc3ccccc31)C(=O)CO2` (stereo not drawn), the “hERG current change (%, negative = inhibition) at 1uM” value was found to be 4.84%.

In the case of `O=C(N/N=C/c1ccco1)C1(O)c2ccccc2-c2ccccc21`, the “hERG current change (%, negative = inhibition) at 1uM” value was found to be 8.19%. Next, `O=C(Cc1ccccc1)N1CCC(c2ccccc2)C1` (stereo not drawn): 10.5%. Next, `COCCC(=O)N1CCC(Oc2ccc(C(=O)NCCn3cccn3)cc2)CC1`: 1.73%; `CC[C@@H](C)C(NC(=O)OC(C)(C)C)c1cn([C@@H](Cc2ccc(O)cc2)C(=O)N2CCN(C(=O)OC(C)(C)C)CC2)nn1` (stereo partly drawn): -7.25%; `COc1ccccc1CNC(=O)c1cc2c(s1)CS(=O)(=O)C2`: 15.3%. For the compound `CCC1Oc2ccccc2N(CC(=O)NCCN2C(C)CCCC2C)C1=O` (stereo not drawn), the “hERG current change (%, negative = inhibition) at 1uM” value came out at 2.97%. In the case of `O=C(NCCC1CCCCN1S(=O)(=O)c1ccccc1)C(=O)NC1CCCC1` (stereo not drawn), the “hERG current change (%, negative = inhibition) at 1uM” value is listed as -7.8%.

With `COc1ccc(-c2nc3cc(C)ccn3c2NC(=O)c2c(F)cccc2Cl)cc1`, the “hERG current change (%, negative = inhibition) at 1uM” value was 8.14%. Next, `O=C(Nc1cc(Cl)ccc1Cl)c1cc(-c2ccco2)on1`: 3.74%; `CCC(CO)[n+]1c(C)cc(/C=C2\Sc3ccccc3N2Cc2ccccc2)cc1C.[Br-]` (stereo not drawn): -18.9%; `Cc1cc(NC(=O)CSc2nnc(-c3c[nH]c4ccccc34)n2-c2ccc(F)cc2)no1`: 15.6%.
